The source gives no read counts; variants with many changes may rest on few reads.
B1: LINE1-mini (parent)
chain: GGCAGAGCUCAACACAGCGUGGCAAAGUGGCUGUGGCUAGACUGCC

Variants of: B1
Assay: self-cleavage, relative activity (ratio to wild type); higher = more cleavage; in vitro, sequencing; the parent is a self-cleaving ribozyme
Work on GACAGAGCUCAACACAGCGUGGCAAAGUGGCUAUGGCUAGACCGCC [G2A G33A U43C] yielded a self-cleavage of 0.21. For GACAGAGCUCAACACAGCGUGGCAAAGUGGCUCUGGCUAGACUGUC [G2A G33C C45U], the self-cleavage was 0.02. In the case of GACAGAGCUCAACACAGCGUGGCAAAGUGGCUCUGGCUAGACUGCU [G2A G33C C46U], the self-cleavage is reported as 0.04. For GACAGAGCUCAACACAGCGUGGCAAAGUGGCUGUGACUGGAUUGCC [G2A G36A A39G C42U], the self-cleavage was 0.16. With GACAGAGCUCAACACAGCGUGGCAAAGUGGCUGUGACUAGACUGCU [G2A G36A C46U] the self-cleavage was 0.12. With GACAGAGCUCAACACAGCGUGGCAAAGUGGCUGUGUCUAGACUGGC [G2A G36U C45G] the self-cleavage was 0.21. GACAGAGCUCAACACAGCGUGGCAAAGUGGCUGUGUCUAGACUCCC [G2A G36U G44C] gave a self-cleavage of 0.22. GACAGAGCUCAACACAGCGUGGCAAAGUGGCUGUGGCUAAGCUGAC [G2A G40A A41G C45A] gave a self-cleavage of 0.04. With GACAGAGCUCAACACAGCGUGGCAAAGUGGCUGUGGCUAAACUGUC [G2A G40A C45U] the self-cleavage was 0.12. GACAGAGCUCAACACAGCGUGGCAAAGUGGCUGUGGCUACACAGCC [G2A G40C U43A] showed a self-cleavage of 0.03. GACAGAGCUCAACACAGCGUGGCAAAGUGGCUGUGGCUAUACGUCC [G2A G40U U43G G44U] gave a self-cleavage of 0.12. Work on GACAGAGCACAUCACAGCGUGGCAAAGUGUCUGUUGCUAGACUGCC [G2A U9A A12U G30U G35U] yielded a self-cleavage of 0.06. In the case of GACAGAGCACAACUCAGCGUGACAAAGUGGCUGUGGCGAGACUGCC [G2A U9A A14U G22A U38G], the self-cleavage is reported as 0.46. GACAGAGCACAACUCAGCGUGGCAAAGUGGCUGUGGCCAGACUGCC [G2A U9A A14U U38C] showed a self-cleavage of 0.35. Variant GACAGAGCAGAACACAGCGUGGCAAAGUGGCUGUCGCUAGACUGCC [G2A U9A C10G G35C] has a self-cleavage of 0.04. For GACAGAGCACAACAUAGCGUGGCAAAGUGGCUGUGGCCCGACUGCC [G2A U9A C15U U38C A39C], the self-cleavage was 0.12. GACAGAGCACAACACAGCGUGGAAAAGUGGCUGUGGCUAGACUGCC [G2A U9A C23A] showed a self-cleavage of 0.29. Variant GACAGAGCACAACACAGCGUGGCAAAGUGGCUGUGGCUAGAUUGCC [G2A U9A C42U] has a self-cleavage of 0.45. Variant GACAGAGCACAACACAUCGUGGCAAAGUGGCUGUGUCUAGACUGAC [G2A U9A G17U G36U C45A] has a self-cleavage of 0.05. In the case of GACAGAGCACAACACAGCAUGGCAAAGUGGCUGUGGCUAGAUUGCC [G2A U9A G19A C42U], the self-cleavage is reported as 0.11. In the case of GACAGAGCACAACACAGCUUGGCAAAGUGGCUGUGGCUAGACUGCC [G2A U9A G19U], the self-cleavage is reported as 0.24. Variant GACAGAGCACAACACAGCGUGACAAAGUGGCUGCGGCUAGCCUGCC [G2A U9A G22A U34C A41C] has a self-cleavage of 0.13. With GACAGAGCACAACACAGCGUGGCAAAUUGGCUGAGGCUAGACUGCU [G2A U9A G27U U34A C46U] the self-cleavage was 0.4. With GACAGAGCACAACACAGCGUGGCAAAGUGGCUGUGCCUAGACUGCC [G2A U9A G36C] the self-cleavage was 0.02. GACAGAGCACAACACAGCGUGGCAAAGUGGCUGUGGCGAGACUGCC [G2A U9A U38G] showed a self-cleavage of 0.12. In the case of GACAGAGCCCAACCCAGCGUGGCAAAGUGGCUGUGGCUAGACUGCC [G2A U9C A14C], the self-cleavage is reported as 0.08. GACAGAGCCAAACACAGCGUGGCAAAGUGGCUGUGGCUAGACUGCC [G2A U9C C10A] gave a self-cleavage of 0.02. Work on GACAGAGCCAACCACAACGUGGCAAAGUGGUUCUGCCUAGACUGCC [G2A U9C C10A A12C G17A C31U G33C G36C] yielded a self-cleavage of 0. Work on GACAGAGCCAAACACAGCGUGGCAAAAUGGCGGGGGCUAGACUGCC [G2A U9C C10A G27A U32G U34G] yielded a self-cleavage of 0.01. Variant GACAGAGCCGAACACAGCGGGGCAAAGUGGCUGUGGCUAGACUGCC [G2A U9C C10G U20G] has a self-cleavage of 0.09. With GACAGAGCCCAACACAGCGUGGCAAAGUGGCUGUGGAUAGACUGCC [G2A U9C C37A] the self-cleavage was 0.01. Variant GACAGAGCCCAACACAGCGUGGCAAAGUGUCUGUGGCUAGACUGCC [G2A U9C G30U] has a self-cleavage of 0.03. GACAGAGCCCAACACAGCGAGGCAAAGUGGCUGUGGCUAGACUGCC [G2A U9C U20A] showed a self-cleavage of 0.04. For GACAGAGCGCCACACAGCGUGGCAAAGUCGGUGUGGCUAGACUGAC [G2A U9G A11C G29C C31G C45A], the self-cleavage was 0. Work on GACAGAGCGCAACGCAGCGUGGCAAAGUGGCUGUUGCUAGACUGCC [G2A U9G A14G G35U] yielded a self-cleavage of 0.16. Work on GACAGAGCGCAACACAGCGUGGCAAAGUGGCUGUGGCUAGUCUGAC [G2A U9G A41U C45A] yielded a self-cleavage of 0.1. GACAGAGCGCAACAGAGCGUGGCAAACUGGAUCCGGCUAGACUGCC [G2A U9G C15G G27C C31A G33C U34C] gave a self-cleavage of 0.02. In the case of GACAGAGCGCAACACAGAGUGGCAAAGUGGAUGUGGCUAGACUGCC [G2A U9G C18A C31A], the self-cleavage is reported as 0.15. Work on GACAGAGCGCAACACAGUGUGGCAAAGUGGCUGUGGCAAGACUGCC [G2A U9G C18U U38A] yielded a self-cleavage of 0.03. For GACAGAGCGCAACACAGCGUGGUUAACUGGGCGUCGCUAGACUGCC [G2A U9G C23U A24U G27C C31G U32C G35C], the self-cleavage was 0.02. For GACAGAGCGCAACACAACGCGGCAAAGUCGCUGAGGCUAGACUGCC [G2A U9G G17A U20C G29C U34A], the self-cleavage was 0.12. Work on GACAGAGCGCAACACAGCGUGGCAAAGUUGCUGUGGCUAGAAUGCC [G2A U9G G29U C42A] yielded a self-cleavage of 0.1. GACAGAGCGCAACACAGCGUGGCAAAGUGGCUGUGACUAGACUGCC [G2A U9G G36A] gave a self-cleavage of 0.96. In the case of GACAGAGCUCAACACAGCGAGCCAAAGUGGCUGUAGCUAGACUGCC [G2A U20A G22C G35A], the self-cleavage is reported as 0.26. With GACAGAGCUCAACACAGCGAGGCAAAGUAGCUGUGGCUUUACUGCC [G2A U20A G29A A39U G40U] the self-cleavage was 0.13. GACAGAGCUCAACACAGCGCGGCAAAGUGGCCGUGGCUAGACUGCC [G2A U20C U32C] showed a self-cleavage of 0.1. With GACAGAGCUCAACACAGCGGGGCAAAAUUGCUGUGGCUAGACUGCC [G2A U20G G27A G29U] the self-cleavage was 0.49. Work on GACAGAGCUCAACACAGCGGGGCAAAGUGGCUGAGGCUAGACUGUC [G2A U20G U34A C45U] yielded a self-cleavage of 0.11. Variant GACAGAGCUCAACACAGCGUGGCAAAGGGGCUGUGGCUAGGCUUCC [G2A U28G A41G G44U] has a self-cleavage of 0.19. GACAGAGCUCAACACAGCGUGGCAAAGUGGCAGUGGCUAUAGUGCG [G2A U32A G40U C42G C46G] showed a self-cleavage of 0.09. Work on GACAGAGCUCAACACAGCGUGGCAAAGUGGCAGCGGCUAGAAUGCC [G2A U32A U34C C42A] yielded a self-cleavage of 0.05. With GACAGAGCUCAACACAGCGUGGCAAAGUGGCCGUGGCUGGACUGCC [G2A U32C A39G] the self-cleavage was 0.05. In the case of GACAGAGCUCAACACAGCGUGGCAAAGUGGCCCUGGCUAGACUGCC [G2A U32C G33C], the self-cleavage is reported as 0.07. In the case of GACAGAGCUCAACACAGCGUGGCAAAGUGGCCGUUGCUAGACUGUC [G2A U32C G35U C45U], the self-cleavage is reported as 0.4. GACAGAGCUCAACACAGCGUGGCAAAGUGGCUGAGACUAGACUGCC [G2A U34A G36A] showed a self-cleavage of 0.05. Variant GACAGAGCUCAACACAGCGUGGCAAAGUGGCUGAGCCUAGACUGCC [G2A U34A G36C] has a self-cleavage of 0.05.

— the RNAGym collection of RNA variant scans (doi:10.7554/elife.90254)
